# Experimental data taken from PubChem BioAssay AID445 (National Center for Advancing Translational Sciences (NCATS), 2006).
# The whole screen tested about 110,000 compounds, of which about 40 (0.04%) were called active. Inconclusive means that the source gave no clear call. Such entries were picked first, then a sample of the others. The call rests on the fitted dose curve; in most records, active means well fitted curve in the direction sought with a large enough effect in the signal ratio (not every such curve was filed as active); inconclusive means small, poorly fitted or top-dose-only effect, or a change in a side signal; inactive means flat fitted curve, though single readings scatter; the % refers to the signal ratio. Where the call is inconclusive, the potency comes from a doubtful curve fit.
# Test: IkB Signaling;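 on IkBa stabilization activation: 0% = basal untreated cells and 100% = reference inhibitor full response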
# Settings: ABC-DLBCL IkBa-CBG/CBR dual luciferase ratio (green luciferase fused to IkBa over red control in OCI-Ly3 lymphoma cells), 4 h, scaled: untreated 0%
# Outline: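 Curves were fitted separately to fusion (green), unfused (red) and ratio luminescence, then classed by r2, magnitude and activity. Cells: OCI-Ly3, 4 h compound plus doxycycline at 37C; 10 uM MG-132 defined full response.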
# [1] = IkBa stabilization activation: at 57.1 µM (top of the series), proteasome inhibitor 100% unless noted
# Potency means the concentration at half of the fitted maximal effect.
compound,measurement,setting,value
COc1ccc(S(=O)(=O)N(CCc2ccccc2)CC(=O)NCc2ccccc2)cc1OC,IkBa stabilization activation,[1],inconclusive: 12.3% [signal inhibitor]
CCn1c(SCC(=O)NCCOC)nc2sc3c(c2c1=O)CCCC3,IkBa stabilization activation,[1],inactive
Cc1cccn2c(=O)c(C(=O)NCCc3ccc(Cl)cc3)cnc12,IkBa stabilization activation,[1],inconclusive: -1.35% [signal inhibitor]
Cc1cc(C)nc(N(C#N)S(=O)(=O)c2ccccc2)n1,IkBa stabilization activation,[1],inconclusive: 7.97% [signal inhibitor]
COc1cc2c3c(c1)/C(=C1/SC(NC(C)=O)=NC1=O)C(=O)N3C(C)(C)C=C2C,IkBa stabilization activation,[1],inactive
Cc1ccc(-c2nnc(Nc3ccc(Br)cc3)c3ccccc23)cc1S(=O)(=O)NCc1nc2ccccc2[nH]1,IkBa stabilization activation,[1],inconclusive: 9.95% [signal inhibitor]
COc1ccc(-n2ncc3c(N4CCCc5ccccc54)ncnc32)cc1,IkBa stabilization activation,[1],inconclusive: 0.36% [signal inhibitor]
Cc1ccc(N2C(=O)c3n[nH]c(C)c3C2c2ccc(C(C)C)cc2)cc1 (centres undefined),IkBa stabilization activation,[1],inconclusive: -1.01% [signal inhibitor]
COc1ccccc1CN1CCN(C(CC(C)C)c2nnnn2Cc2cccs2)CC1 (centres undefined),IkBa stabilization activation,[1],inconclusive: 2.84% [signal inhibitor]
O=C1/C(=N/n2cnnc2)c2ccccc2N1Cc1ccccc1,IkBa stabilization activation,[1],inconclusive: 9.67% [signal activator]
CC(NC(=O)Nc1ccccc1O)(C(F)(F)F)C(F)(F)F,Potency,[1],"inconclusive: 25.1 µM [signal inhibitor, partial curve]"
CC(=O)c1cccc(NC(=O)c2sc3nc4c(cc3c2N)CCCC4)c1,IkBa stabilization activation,[1],inconclusive: 2.42% [signal inhibitor]
COc1cc(OC)c(NC(=O)NCc2ccc3c(c2)CCN3C(C)=O)cc1Cl,IkBa stabilization activation,[1],inconclusive: 1.69% [signal inhibitor]
COCCCNc1ncnc2c1cnn2-c1ccc(C)cc1C,IkBa stabilization activation,[1],inactive
O=C1c2ccccc2-c2ccc(NC(=O)[C@H]3CCCC[C@@H]3C(=O)O)cc21,IkBa stabilization activation,[1],"inactive: -0.667% [at 11.4 µM, scaled: untreated 0%, proteasome inhibitor 100%]"
CCc1ccc2occ(CC(=O)Nc3c(C(=O)Nc4ccc(Cl)cc4)oc4ccccc34)c2c1,IkBa stabilization activation,[1],inactive
Cc1ccc(CNC(=O)C(=O)NCC(c2cccs2)S(=O)(=O)c2cccs2)cc1 (centres undefined),IkBa stabilization activation,[1],inconclusive: 0.625% [signal inhibitor]
CC(C)(C)OC(=O)N1CCC(c2c(C(=O)Nc3ccc4c(c3)OCO4)cnn2-c2ccc(F)cc2F)CC1,IkBa stabilization activation,[1],inconclusive: 8.56% [signal inhibitor]
CCOC(=O)c1[nH]c2ccccc2c1NC(=O)c1ccc(Br)o1,IkBa stabilization activation,[1],inconclusive: 1.62% [signal inhibitor]
Cc1cc(-c2ccc(C)c(S(=O)(=O)N(Cc3cccs3)C(C)C)c2)on1,IkBa stabilization activation,[1],inconclusive: 1.63% [signal inhibitor]
O=C(c1cccc(C(=O)N2CCN(c3ccc(F)cc3)CC2)c1)N1CCN(c2ccc(F)cc2)CC1,IkBa stabilization activation,[1],inconclusive: 1.23% [signal inhibitor]
Cc1cccc(NC(=O)CCNS(=O)(=O)c2ccc3c(c2)CCCC(=O)N3)c1C,IkBa stabilization activation,[1],inconclusive: 1.06% [signal inhibitor]
CCOC(=O)c1[nH]c2c(c1Cc1ccccc1)C(=O)CC(c1ccc(OC)cc1)C2 (centres undefined),IkBa stabilization activation,[1],inconclusive: 5.08% [signal inhibitor]
CCOC(=O)c1ccc(NC(=O)c2cnc(N3CCCC3)nc2C)cc1,IkBa stabilization activation,[1],inconclusive: 3.9% [signal inhibitor]
CCc1ccc(NC(=O)CSC2=Nc3ccccc3C3=NC(CC(=O)NCc4ccc5c(c4)OCO5)C(=O)N23)cc1 (centres undefined),IkBa stabilization activation,[1],inconclusive: 3.47% [signal inhibitor]
Cc1ccccc1Cn1c(=O)n(CCCCC(=O)NCCc2ccccc2)c(=O)c2ccccc21,IkBa stabilization activation,[1],inactive
CN1CCc2c(sc3c2C(=O)NC(c2cccs2)N3)C1 (centres undefined),IkBa stabilization activation,[1],inactive
c1coc(-c2nc3ccccn3c2Nc2ccc3c(c2)OCCO3)c1,IkBa stabilization activation,[1],inconclusive: -0.523% [signal inhibitor]
Cc1ccc(Cn2c(SCc3ccc(C(=O)NCCc4ccccc4)cc3)nc3ccncc32)cc1,IkBa stabilization activation,[1],inconclusive: -0.0797% [signal inhibitor]
COc1ccc(-n2c(=O)c3sc4ccccc4c3n(CC(=O)N3CCCC3)c2=O)cc1,IkBa stabilization activation,[1],inactive
COc1ccc(-c2cn3c(n2)sc2cc(C(=O)Nc4ccccc4F)ccc23)cc1,IkBa stabilization activation,[1],inconclusive: 0.741% [signal inhibitor]
Cc1cc(N2CCOCC2)nc(SCC(=O)c2ccccc2)n1,IkBa stabilization activation,[1],inconclusive: 4.33% [signal inhibitor]
O=c1oc2c(CN3CCOCC3)c(O)c(Cl)cc2c2c1CCCC2,IkBa stabilization activation,[1],inactive
O=C1C=CC2=C3c4cc(O)c(O)cc4C[C@@]3(O)COC2=C1O,IkBa stabilization activation,[1],"inactive: 1.6% [at 11.4 µM, scaled: untreated 0%, proteasome inhibitor 100%]"
COc1cc(Nc2nc(SCC#N)nc3ccccc23)cc(OC)c1OC,IkBa stabilization activation,[1],inactive
CC1(C)Cc2cccc(OCC(=O)O)c2O1,IkBa stabilization activation,[1],inactive
CCCCNC(=O)C1CCCN(c2nnc(C)c3c(C)n(-c4ccc(Cl)cc4)nc23)C1 (centres undefined),IkBa stabilization activation,[1],inconclusive: -0.858% [signal inhibitor]
CN1CCc2c(sc3c2C(=O)NC(c2ccc(-c4cccc(Cl)c4)o2)N3)C1 (centres undefined),Potency,[1],"inconclusive: 25.1 µM [signal inhibitor, partial curve]"
CC(=O)c1ccc(NC(=O)CSc2nccn2Cc2ccco2)cc1,IkBa stabilization activation,[1],inactive
N#CC(=C(/N)Sc1ccccc1N)/C(C#N)=C(/N)Sc1ccccc1N,IkBa stabilization activation,[1],inconclusive: 1.55% [signal inhibitor]
same,IkBa stabilization activation,"at 57.1 µM (top of the series), proteasome inhibitor 100%",inactive: 4.94%
CC(C)c1ccc(S(=O)(=O)Nc2ccc(O)c(Sc3nc4ccccc4s3)c2)cc1,IkBa stabilization activation,[1],inconclusive: -8.5% [signal inhibitor]
CSc1cccc(NC(=O)C2CCN(S(=O)(=O)c3ccc4[nH]c(=O)ccc4c3)CC2)c1,IkBa stabilization activation,[1],inconclusive: 0.548% [signal inhibitor]
CCOC(=O)C1(C)C=C(Nc2ccc(C)cc2)C(=O)N1c1ccccc1 (centres undefined),IkBa stabilization activation,[1],inconclusive: 9.1% [signal inhibitor]
